Results: PubChem BioAssay AID624172 (National Center for Advancing Translational Sciences (NCATS), 2012)
Screen size: about 380,000 compounds; about 25 (0.007%) were called active. The inconclusive results got no clear call from the source; some entries with a clear call stand among them for comparison. Calls follow the shape of the dose curve; as a rule, active = well fitted activation curve with a large enough effect; inconclusive = small, poorly fitted or top-dose-only effect; inactive = no such curve, though single readings can be large or run the other way. Potencies of inconclusive entries are left out as doubtful fits.

What follows are compounds tested against Glucagon-like peptide 1 receptor (Homo sapiens) (UniProt P43220) (assay: qHTS of GLP-1 Receptor Agonists). Details: HEK293 GLP-1R CRE-luciferase, luminescence, 4-6 h, cells express a hypersensitive GLP-1R form; activation: at 45.6 µM (top of the series).
Sequence of UniProt P43220 (P43220 whole entry, looked up): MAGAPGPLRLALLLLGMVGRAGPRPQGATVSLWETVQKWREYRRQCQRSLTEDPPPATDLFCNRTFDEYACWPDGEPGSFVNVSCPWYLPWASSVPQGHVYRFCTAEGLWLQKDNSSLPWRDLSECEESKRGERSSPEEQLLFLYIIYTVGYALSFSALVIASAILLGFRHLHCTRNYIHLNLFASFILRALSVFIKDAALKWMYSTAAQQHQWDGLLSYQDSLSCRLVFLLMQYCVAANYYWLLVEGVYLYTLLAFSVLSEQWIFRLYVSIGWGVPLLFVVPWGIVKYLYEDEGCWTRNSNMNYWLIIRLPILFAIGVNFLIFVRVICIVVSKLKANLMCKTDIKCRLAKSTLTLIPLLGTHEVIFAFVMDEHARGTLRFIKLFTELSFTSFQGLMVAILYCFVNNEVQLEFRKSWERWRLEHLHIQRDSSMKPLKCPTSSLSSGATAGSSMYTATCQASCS
For activation in this document: % of control where 0% means no effect.
Potency is read from the fitted curve at half-maximal effect; tags tell the direction and shape of the fitted curve.

Row | SMILES | activation | Potency
1 | CC1OC(O[C@H]2C[C@@H](O)[C@]3(CO)[C@@H]4C(CC[C@]3(O)C2)[C@@]2(O)CC[C@H](C3=CC(=O)OC3)[C@@]2(C)C[C@H]4O)C(O)C(O)C1O (stereo partly drawn) | inactive: -7.86% | 
2 | COc1ccccc1-n1c(-c2ccc(C)cc2)nc2ccccc2c1=O |  | inconclusive [activator, single point]
3 | CN1CC[C@@]2(C)c3cc(O)ccc3N(C)[C@@H]12 |  | inconclusive [activator, full curve, poor fit]
4 | COC(=O)C1=C(c2ccccc2OCc2ccccc2)C[C@@H]2CC[C@H]1N2C(=O)NCCc1ccc(F)cc1 | inactive: -1.7% | 
5 | CN(C)c1nc(OCCNC(=O)COc2ccc(Cl)cc2Cl)nc(N2CCCCC2)n1 | inactive: -6.44% | 
6 | Cc1ccccc1CN1CCN(Cc2ccccc2)CC1 | inactive: 0.591% | 
7 | COC(=O)c1cc2c(s1)=NC=NP=2(N1CCOCC1)N1CCOCC1 |  | inactive
8 | Cc1cccc(-n2c(/C=C/c3ccc([N+](=O)[O-])o3)nc3ccccc3c2=O)c1 |  | inconclusive [activator, full curve, poor fit]
9 | O=C1NC(=O)N(Cc2ccc(F)cc2)C(=O)/C1=C/c1cccs1 | inactive: -17.5% | 
10 | N#Cc1c(/N=C/c2ccc(O)cc2O)sc2c1C1CCN2CC1 |  | inconclusive [activator, partial curve]
11 | CC(C)Oc1cccc(NC(=O)c2ccccc2C(F)(F)F)c1 |  | inconclusive [activator, partial curve, poor fit]
12 | CC(C)(C)NCC(O)c1ccccc1Cl (stereo not drawn) | inconclusive: 42.1% [activator] | 
13 | CN1C(CC(O)c2ccccc2)CCCC1CC(O)c1ccccc1 (stereo not drawn) |  | inconclusive [activator, partial curve, poor fit]
14 | CN1C(=O)CN=C(c2ccccc2)c2cc([N+](=O)[O-])ccc21 |  | inconclusive [activator, full curve, poor fit]
15 | Cc1ccc[n+](CC(O)Cn2c3ccccc3c3ccccc32)c1 (stereo not drawn) | inconclusive: 36% [activator] | 
16 | O=C(N[C@@H]1N=C(c2ccccc2F)c2cccc3c2N(CC3)C1=O)c1cc2ccccc2[nH]1 | inactive: -7.57% | 
17 | O=P(Oc1ccccc1)(Oc1ccccc1)C(Nc1ccccc1)c1ccccc1 (stereo not drawn) | inactive: -14.4% | 
18 | O=[N+]([O-])c1c2ccccc2cc2ccccc12 |  | inconclusive [activator, partial curve, poor fit]
19 | C[C@H]1CCC[C@H](O)CCCCCc2cc(O)cc(O)c2C(=O)O1 |  | inconclusive [activator, full curve, poor fit]
20 | O=c1c2ccccc2nc(-c2ccccc2)n1-c1ccccc1 | inactive: 13.7% | 
21 | Cc1nn(-c2ccccc2)c2c1C(c1ccc3c(c1)OCO3)SCC(=O)N2 (stereo not drawn) | inconclusive: 30.2% [activator] | 
22 | CC(C)(C)NCC(O)c1cc(Cl)c(N)c(Cl)c1 (stereo not drawn) | inconclusive: 54.7% [activator] | 
23 | CCC(=NCCc1c[nH]c2ccccc12)c1c(O)n(C)c(=O)n(C)c1=O | inactive: 8.08% | 
24 | COc1ccc(C=O)cc1 | inconclusive: 34% [activator] | 
25 | COc1ccc(Cc2nccc3cc(OC)c(OC)cc23)cc1OC |  | inconclusive [activator, partial curve]

Row | SMILES | activation | Potency
26 | CN1CCN=C(c2ccccc2)c2cc(Cl)ccc21 |  | inconclusive [activator, partial curve, poor fit]
27 | COc1cccc(-c2nn(Cc3ccccc3)cc2C(=O)O)c1 | inactive: -0.319% | 
28 | C[C@@H]1CC2C3CC=C4C[C@@H](O)CC[C@]4(C)C3CC[C@]2(C)[C@H]1O (stereo partly drawn) | inactive: 0.521% | 
29 | C=CCn1c(O)c(C(CC)=NCCc2c[nH]c3ccccc23)c(=O)[nH]c1=O |  | inconclusive [activator, partial curve, poor fit]
30 | CNC(C)Cc1ccc2c(c1)OCO2 (stereo not drawn) | inactive: -1.31% [at 110 µM] | 
31 | COc1ccc(-c2n[nH]c(=S)n2-c2ccc3c(c2)OCCO3)cc1OC |  | inconclusive [activator, partial curve, poor fit]
32 | COc1ccc(C2=NCc3nnc(C)n3-c3ccc(Cl)cc32)cc1Cl |  | inconclusive [activator, single point]
33 | CN(C)C(=O)Oc1cc(OC(=O)N(C)C)cc([C@@H](O)CNC(C)(C)C)c1 |  | inconclusive [activator, partial curve, poor fit]
34 | Nc1ccc2nc3c(c(Cl)c2c1)CCCC3 |  | inconclusive [activator, single point]
35 | Cc1cc(N(C)C)ccc1N=Nc1ccc(N)cc1 |  | inconclusive [activator, single point]
36 | Cn1c(=O)cc(OCCCC(=O)N2CCC3(CC2)OCCO3)c2ccccc21 | inactive: -2.38% | 
37 | CC(Cc1ccc(O)cc1)NCC(O)c1ccc(O)c(O)c1 (stereo not drawn) | inconclusive: 48.7% [activator] | 
38 | O=C(CCC(=O)N1C[C@H]2C[C@@H](C1)c1cccc(=O)n1C2)NCc1cccc(C(F)(F)F)c1 | inactive: -3.61% | 
39 | C[C@]12CCC(=O)C(O)=C1CC[C@@H]1[C@H]3CCC(=O)[C@@]3(C)CC[C@@H]12 |  | inconclusive [activator, partial curve, poor fit]
40 | Cc1ccc(C2=NCC(=O)N(CC(=O)N3CCCCC3)c3sc(C)c(C)c32)cc1 | inactive: 0.167% | 
41 | Cc1cc[n+](Cc2ccccc2)cc1 | inactive: 8.11% | 
42 | CCCC1CCCCN1 (stereo not drawn) | inactive: -3.04% | 
43 | COc1ccccc1N1CCN(Cc2c(F)cccc2F)CC1 | inactive: 2.64% | 
44 | CC(c1ncncc1F)[C@](O)(Cn1cncn1)c1ccc(F)cc1F (stereo partly drawn) |  | inconclusive [activator, partial curve, poor fit]
45 | Nc1ncnc2c1ncn2[C@@H]1O[C@H](COP(=O)(O)OP(=O)(O)OP(=O)(O)O)[C@@H](O)[C@H]1O |  | inconclusive [activator, partial curve, poor fit]
46 | COc1ccc(-c2ccc3c(c2)CN(CC(C)C)Cc2cnnn2-3)cc1 |  | inconclusive [activator, partial curve, poor fit]
47 | COc1ccc(N/N=C/c2c(O)n(-c3ccc(C)c(C)c3)c(=O)[nH]c2=O)cc1 | inactive: -3.88% | 
48 | CCC(=NCCC1=CCCCC1)c1c(O)[nH]c(=O)[nH]c1=O |  | inconclusive [activator, single point]
49 | COc1ccc(NC2=NCC(C)S2)cc1 (stereo not drawn) | inactive: 8.56% | 
50 | NCCc1ccc(S(N)(=O)=O)cc1 | inactive: -2.73% | 

Row | SMILES | activation | Potency
51 | CCOC(=O)C1CCCN(c2ccc([N+](=O)[O-])c3nonc23)C1 (stereo not drawn) |  | inconclusive [activator, single point]
52 | C=CCn1c(O)c(C(CC)=NCCC2=CCCCC2)c(=O)[nH]c1=O |  | inconclusive [activator, single point]
53 | CCC(=NCc1cc(OC)cc(OC)c1)c1c(O)[nH]c(=O)[nH]c1=O |  | inconclusive [activator, partial curve, poor fit]
54 | O=C(OCc1ccc(Cl)c(Cl)c1)c1ccccn1 |  | inconclusive [activator, partial curve, poor fit]
55 | CC(C)NCC(O)c1ccc(N)c(C#N)c1 (stereo not drawn) | inconclusive: 49.9% [activator] | 
56 | CNCC(O)c1ccc(O)cc1 (stereo not drawn) |  | inconclusive [activator, partial curve, poor fit]
57 | OC(CNCCc1c[nH]c2ccccc12)c1ccccc1 (stereo not drawn) |  | inconclusive [activator, full curve, poor fit]
58 | CC(NCC#Cc1ccccc1)C(O)c1ccccc1 (stereo not drawn) |  | inconclusive [activator, full curve, poor fit]
59 | COC(=O)C1=C(c2cccc(OCc3ccccc3)c2)C[C@@H]2CC[C@H]1N2C(=O)NC1CCN(Cc2ccccc2)CC1 | inactive: 2.71% | 
60 | O=C(/C=C/c1cccc(F)c1)Nc1ccc(S(=O)(=O)Nc2ncccn2)cc1 |  | inconclusive [activator, partial curve, poor fit]
61 | Cc1[nH]c2ccc(OC(F)(F)F)cc2c1CCNCc1ccc(Cl)cc1 | inactive: 5.41% | 
62 | CC(C(=O)c1cn(C)c2ccccc12)c1ccccc1 (stereo not drawn) | inactive: 3.45% | 
63 | Cc1ccc(O)c(CN2CCN(c3ccccc3)CC2)c1 | inactive: -4.84% | 
64 | CCCCCn1c(Sc2ccccc2)nc2c1c(=O)[nH]c(=O)n2C |  | inconclusive [activator, partial curve]
65 | CC(CCc1ccccc1)NCCC#N (stereo not drawn) |  | inconclusive [activator, partial curve, poor fit]
66 | Cn1c(=O)oc2cc(S(=O)(=O)NC3CCCCCCC3)ccc21 |  | inconclusive [activator, partial curve, poor fit]
67 | CCCSc1ccc2nc(NC(=O)OC)[nH]c2c1 |  | inconclusive [activator, full curve]
68 | COc1cccc(NC(=O)N2CCC3(CC2)OCCO3)c1 | inactive: 4% | 
69 | CCOc1ccc(-c2c(C)n(-c3ccc(OCC)cc3)c3[n+]2CCCCC3)cc1 | inactive: -2.18% | 
70 | CCC(=NCCC(c1ccccc1)c1ccccc1)c1c(O)[nH]c(=O)[nH]c1=O |  | inconclusive [activator, partial curve, poor fit]
71 | CN(C)C(=O)CNC(=O)Cc1ccccc1 |  | inconclusive [activator, full curve, poor fit]
72 | COc1ccc(/C=N\NC(=O)c2cccc(F)c2)cc1COc1ccccc1 |  | inconclusive [activator, partial curve, poor fit]
73 | COc1ccc(-c2oc(=O)n(C)c2-c2ccc(OC)cc2)cc1 |  | inconclusive [activator, partial curve, poor fit]
